Data on 13 sequences can be found in publication PMC4081100.

Holding throughout (experiment): universal protein binding microarray (PBM)
Common to all, as to conditions: transcription factors of Arabidopsis thaliana; high values mean tight binding; most listed sequences are background and not binding sites; double strand, one strand shown

Assay [1] concerns the target T1, GST-ANAC092(1-176) (UniProt Q9FKA0).
T1 sequence: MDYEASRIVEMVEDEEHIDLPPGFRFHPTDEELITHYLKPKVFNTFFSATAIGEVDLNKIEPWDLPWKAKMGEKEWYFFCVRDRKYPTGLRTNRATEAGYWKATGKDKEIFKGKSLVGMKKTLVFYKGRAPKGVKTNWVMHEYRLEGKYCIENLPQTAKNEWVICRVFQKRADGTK

Assay [2] concerns the target GST-NTL6(1-168) (UniProt Q9SCK6).
Assay [3] addresses T2, GST-ANAC019 NAC domain (UniProt Q9C932).
T2 sequence: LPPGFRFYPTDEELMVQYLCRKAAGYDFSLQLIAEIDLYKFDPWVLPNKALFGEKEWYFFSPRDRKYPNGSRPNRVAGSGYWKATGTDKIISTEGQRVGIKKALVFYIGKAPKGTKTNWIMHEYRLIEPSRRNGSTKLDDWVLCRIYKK

Assay [4] has as its target T3, GST-ANAC055(1-171) (UniProt Q9LDY8).
T3 sequence: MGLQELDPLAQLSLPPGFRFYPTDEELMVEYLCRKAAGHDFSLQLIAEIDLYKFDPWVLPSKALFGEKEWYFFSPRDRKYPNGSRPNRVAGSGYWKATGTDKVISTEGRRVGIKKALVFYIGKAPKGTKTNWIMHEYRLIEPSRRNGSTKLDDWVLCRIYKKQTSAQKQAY

Assay [5] addresses T4, GST-ATAF1 NAC domain (UniProt Q39013).
T4 sequence: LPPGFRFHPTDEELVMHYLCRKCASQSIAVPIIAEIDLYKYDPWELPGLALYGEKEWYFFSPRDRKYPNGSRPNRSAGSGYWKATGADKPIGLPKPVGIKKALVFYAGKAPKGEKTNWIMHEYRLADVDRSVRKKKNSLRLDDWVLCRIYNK

For assay [6], the target named is T5, GST-ANAC092(1-285) full length (UniProt Q9FKA0).
T5 sequence: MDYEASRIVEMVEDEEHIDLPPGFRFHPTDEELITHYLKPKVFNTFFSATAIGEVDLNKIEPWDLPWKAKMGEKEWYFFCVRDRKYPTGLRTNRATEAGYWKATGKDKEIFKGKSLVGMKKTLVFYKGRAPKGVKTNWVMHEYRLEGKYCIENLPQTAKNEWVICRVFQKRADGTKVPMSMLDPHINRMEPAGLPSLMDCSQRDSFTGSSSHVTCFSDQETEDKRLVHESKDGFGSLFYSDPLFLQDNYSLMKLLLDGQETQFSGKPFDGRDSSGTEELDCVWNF

For assay [7], the target named is T6, GST-NAP(1-166) (UniProt O49255).
T6 sequence: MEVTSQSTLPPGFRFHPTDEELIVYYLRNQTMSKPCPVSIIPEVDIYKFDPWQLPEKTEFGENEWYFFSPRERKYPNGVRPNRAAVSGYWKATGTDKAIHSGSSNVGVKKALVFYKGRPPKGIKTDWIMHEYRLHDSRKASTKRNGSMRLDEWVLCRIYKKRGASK

Assay [8] deals with T7, GST-NST2(1-184) (UniProt Q9M274).
T7 sequence: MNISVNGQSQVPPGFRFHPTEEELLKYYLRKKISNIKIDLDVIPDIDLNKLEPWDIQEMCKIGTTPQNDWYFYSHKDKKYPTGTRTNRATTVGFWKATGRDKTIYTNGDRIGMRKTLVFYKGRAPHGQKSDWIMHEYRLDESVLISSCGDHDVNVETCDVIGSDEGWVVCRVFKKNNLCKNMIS

Assay [9] has as its target T8, GST-NTL8 NAC domain (UniProt Q9XIN7).
T8 sequence: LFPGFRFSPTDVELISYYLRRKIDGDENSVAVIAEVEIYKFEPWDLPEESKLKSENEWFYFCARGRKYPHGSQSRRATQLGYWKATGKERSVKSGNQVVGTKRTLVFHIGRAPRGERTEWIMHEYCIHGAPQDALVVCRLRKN

Assay [10] has as its target T9, GST-SND1(1-203) (UniProt Q9LPI7).
T9 sequence: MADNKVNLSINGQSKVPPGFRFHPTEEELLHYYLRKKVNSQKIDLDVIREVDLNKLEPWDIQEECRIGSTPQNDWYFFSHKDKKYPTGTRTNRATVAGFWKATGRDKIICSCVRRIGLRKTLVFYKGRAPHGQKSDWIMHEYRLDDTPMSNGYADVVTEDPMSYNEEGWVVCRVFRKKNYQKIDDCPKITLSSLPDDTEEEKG

The target of assay [11] is T10, GST-VND3 NAC domain (UniProt Q9FH59).
T10 sequence: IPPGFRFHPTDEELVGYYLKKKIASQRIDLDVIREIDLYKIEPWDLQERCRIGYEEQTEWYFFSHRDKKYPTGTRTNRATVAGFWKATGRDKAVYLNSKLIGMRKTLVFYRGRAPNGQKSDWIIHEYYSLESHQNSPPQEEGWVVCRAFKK

The target of assay [12] is T11, GST-VND7 NAC domain (UniProt Q9C8W9).
T11 sequence: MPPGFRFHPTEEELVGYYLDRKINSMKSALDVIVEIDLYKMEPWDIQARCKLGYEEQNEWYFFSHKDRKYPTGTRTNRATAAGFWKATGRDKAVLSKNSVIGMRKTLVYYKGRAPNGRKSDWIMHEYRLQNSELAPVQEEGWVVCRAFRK

Assay [13] concerns the target T12, GST-VOZ2 (Arabidopsis thaliana) (UniProt Q9SLB9).
T12 sequence: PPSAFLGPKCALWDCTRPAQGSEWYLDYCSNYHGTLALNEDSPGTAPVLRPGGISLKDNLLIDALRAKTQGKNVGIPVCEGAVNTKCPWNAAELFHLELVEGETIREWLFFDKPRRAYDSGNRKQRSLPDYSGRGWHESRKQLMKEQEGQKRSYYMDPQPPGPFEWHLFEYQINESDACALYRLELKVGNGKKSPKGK

Assay [14] concerns the target GST-WRKY1(266-371) (UniProt Q9SI37).

This is a selection; strong and weak results do not stand in their true shares. For some assays here: At the low end of the ranking, values are background and their order means little. Some of the results follow. For some assays here: Construct or isoform of the protein are uncertain.

For GACCAGTC, the binding signal in assay [1] is -0.0584 E-score; in [2], -0.173 E-score; in assay [3], -0.045 E-score; in assay [4], -0.153 E-score; in assay [5], -0.0894 E-score; in assay [6], -0.213 E-score. Besides, the binding signal in [7] was -0.14 E-score; in assay [8], -0.109 E-score; in [9], -0.0917 E-score; in [10], -0.194 E-score; in assay [11] it was -0.11 E-score; in [12] it was -0.146 E-score. The binding signal in assay [13] is -0.023 E-score; in assay [14] it was 0.406 E-score.

With CCTGGTCA, the binding signal in assay [1] was -0.0922 E-score; in assay [2], -0.108 E-score; in [3], -0.125 E-score; in assay [4] it was -0.177 E-score; in [5], -0.16 E-score; in [6], -0.219 E-score. The binding signal was -0.129 E-score in assay [7]; -0.17 E-score in assay [8]; -0.104 E-score in assay [9]; -0.0995 E-score in [10]; -0.128 E-score in assay [11]; -0.122 E-score in [12]. The binding signal in assay [13] is -0.244 E-score; in [14], 0.454 E-score.

Take CAGTCAGA: the binding signal is -0.00222 E-score in assay [1]; -0.0908 E-score in assay [2]; 0.0745 E-score in assay [3]; -0.133 E-score in [4]; -0.0973 E-score in assay [5]; 0.0135 E-score in assay [6]. For the same sequence, the binding signal in assay [7] is -0.0198 E-score; in [8], -0.0942 E-score; in assay [9], -0.0168 E-score; in assay [10] it was 0.0438 E-score; in assay [11] it was -0.0943 E-score; in [12], -0.0368 E-score. Further, the binding signal is -0.103 E-score in [13] and 0.404 E-score in assay [14].

For the sequence CGAGGTCA, the binding signal in [1] was 0.016 E-score; in [2], -0.0218 E-score; in assay [3] it was -0.0278 E-score; in assay [4], -0.0808 E-score; in assay [5], -0.265 E-score; in [6], -0.0398 E-score. Further, the binding signal in assay [7] is -0.00966 E-score; in assay [8], -0.163 E-score; in [10] it was -0.083 E-score; in [11], -0.126 E-score; in [12], -0.0968 E-score; in [13], -0.11 E-score. In assay [14], this sequence showed a binding signal of 0.425 E-score.

On to CGTTTGAC, for which the binding signal in assay [1] is 0.0427 E-score; in [2] it was -0.0285 E-score; in assay [3], -0.00283 E-score; in assay [4], 0.05 E-score; in assay [6], -0.0215 E-score; in [9], 0.00259 E-score. Moreover, the binding signal was -0.0177 E-score in [10]; 0.0304 E-score in [11]; -0.0344 E-score in assay [12]; 0.0149 E-score in [13]; 0.476 E-score in [14].

For ATCTTGAC, the binding signal in assay [1] is -0.0906 E-score; in [2], -0.134 E-score; in assay [3], -0.0223 E-score; in assay [4], -0.0711 E-score; in assay [5], 0.0474 E-score; in [6], 0.0308 E-score. For the same sequence, the binding signal in assay [7] was 0.0459 E-score; in assay [8], -0.0278 E-score; in [9] it was -0.0884 E-score; in assay [10] it was -0.0185 E-score; in [11] it was -0.0267 E-score; in [12], -0.0446 E-score. The binding signal was -0.113 E-score in assay [13] and 0.47 E-score in [14].

Consider CTGACCGA, for which the binding signal is -0.198 E-score in assay [1]; -0.224 E-score in [2]; -0.0026 E-score in assay [3]; -0.222 E-score in assay [4]; -0.232 E-score in assay [5]; -0.152 E-score in assay [6]. The binding signal is -0.186 E-score in [7]; -0.196 E-score in assay [8]; -0.144 E-score in [9]; -0.19 E-score in [10]; -0.121 E-score in assay [11]; -0.109 E-score in [12]. The binding signal was -0.178 E-score in assay [13] and 0.439 E-score in assay [14].

Turning to CAAGACCG, the binding signal in assay [1] was -0.0199 E-score; in assay [2], -0.0487 E-score; in assay [3], 0.0388 E-score; in assay [4], -0.0564 E-score; in [5], -0.17 E-score; in assay [6], -0.0734 E-score. Further, the binding signal in [7] is 0.0131 E-score; in [8], -0.0497 E-score; in assay [9], 0.0186 E-score; in [10], -0.0644 E-score; in assay [11] it was -0.0307 E-score; in assay [12] it was -0.0736 E-score. For the same sequence, the binding signal is -0.0284 E-score in assay [13] and 0.405 E-score in assay [14].

As to ACGACCAG, the binding signal in assay [1] was -0.0588 E-score; in [2] it was -0.152 E-score; in assay [3], -0.0712 E-score; in assay [4], -0.0654 E-score; in [5], -0.139 E-score; in assay [6] it was -0.0464 E-score. The binding signal in assay [7] was -0.0873 E-score; in assay [8] it was -0.162 E-score; in [9], -0.117 E-score; in assay [10], -0.13 E-score; in [11] it was -0.137 E-score; in assay [12], -0.152 E-score. Also, the binding signal is -0.0999 E-score in assay [13] and 0.403 E-score in [14].

Take ACTTGACT: the binding signal in assay [1] was -0.0787 E-score; in assay [2] it was -0.0451 E-score; in [3] it was 0.0123 E-score; in [4] it was 0.0752 E-score; in assay [6], 0.0808 E-score; in [7], -0.0619 E-score. Moreover, the binding signal is 0.0742 E-score in assay [8]; -0.0789 E-score in assay [9]; 0.0252 E-score in assay [10]; 0.0437 E-score in assay [11]; -0.00826 E-score in assay [12]; -0.0659 E-score in assay [13]. Moreover, the binding signal in assay [14] worked out at 0.456 E-score.

Turning to AATTGACT, the binding signal in assay [1] is -7e-05 E-score; in assay [2], 0.0713 E-score; in [3], 0.0203 E-score; in assay [7], -0.112 E-score; in assay [9], 0.0197 E-score; in assay [10], 0.0673 E-score. The binding signal in assay [11] was 0.0199 E-score; in assay [12], -0.0374 E-score; in assay [13], 0.0443 E-score; in [14], 0.46 E-score.

Turning to CACGGCTC, the binding signal in [1] is -0.005 E-score; in assay [2], -0.233 E-score; in assay [3], 0.42 E-score; in [8], -0.114 E-score; in [9], -0.0938 E-score; in [10] it was -0.0669 E-score. Further, the binding signal in assay [11] was 0.337 E-score; in assay [12], 0.377 E-score; in [13], -0.109 E-score; in [14], -0.0849 E-score.

Consider CTCGTCAA, for which the binding signal was -0.00834 E-score in assay [1]; -0.0323 E-score in assay [2]; 0.0225 E-score in assay [3]; 0.0602 E-score in assay [4]; -0.0191 E-score in assay [6]; 0.0192 E-score in [8]. The binding signal in [9] is -0.0536 E-score; in assay [10], 0.0408 E-score; in [11] it was 0.0246 E-score; in [12], 0.0481 E-score; in assay [13] it was 0.0118 E-score; in [14] it was 0.424 E-score.
